In the experiment the test system is Pseudoperonospora cubensis. In words: Test for control effect on downy mildew of cucumber. Also on record: key: A: No infection.; B: Less than 25% of untreated plot; C: 25% or more to less than 50%, of untreated plot; D: 50% or more of untreated plot. As to conditions: cucumber seedlings (sagami hanjiro), wettable powder at 500 ppm, 15 ml per pot; examined 7 days later. How it is done: Test for Control Effect on Downy Mildew of Cucumber
10 cucumber seeds (variety: sagami hanjiro) were sown in each of vinyl chloride resin made pots of 9 cm×9 cm and were allowed to germinate in a greenhouse for 7 days. The resulting cucumber young seedlings which reached a cotyledon stage were used as a sample plant. One kind of the wettable powders produced based on the Production Example 2 was diluted with water so as to give an active ingredient concentration of 500 ppm and the resulting solution was sprayed onto the sample plant in an amount of 15 ml per pot. The plant was air-dried and inoculated, by spraying, with a suspension of conidia of Pseudoperonospora cubensis. Immediately, the pot was placed in a wet house of 20° C. for 24 hours. Then, the pot was transferred into a greenhouse. 7 days later, the total diseased area of all the cotyledons in the pot was examined. The wettable powder used was evaluated according to the standard of Table 19.

On to `O=[N+]([O-])CCN1C(=S)c2ccccc2S1(=O)=O` [compound 39], for which the “Evaluation (total diseased area of all the cotyledons)” value was “A”.

Source of the values: patent US20060287375A1 (priority 2003, published 2006).
